Data on 27 molecules can be found in the antibiotic and cytotoxicity screens of Wong et al. (2023).

Each structure is given as a SMILES string. This is one part of the list.

One experiment relates to HSkMC. Nature of the experiment: cytotoxicity call (relative viability < 0.9). The note with it: 10 µM.
Another experiment concerns HepG2. Nature of the experiment: cytotoxicity call (relative viability < 0.9). The note with it: 10 µM.
The next experiment has as its system S. aureus RN4220. Nature of the experiment: growth inhibition call (relative growth <= 0.2). The conditions noted are these: 50 µM.

For the molecule `COc1ccc(CN(C)C[C@@H]2OCCCC[C@@H](C)Oc3ccc(NS(=O)(=O)c4cccs4)cc3C(=O)N([C@H](C)CO)C[C@@H]2C)cc1`, the cytotoxicity call in the experiment on HSkMC and in the experiment with HepG2 was “inactive” each time. The growth inhibition call with S. aureus RN4220 was “inactive”.

With `C[C@H]1CCCCO[C@H](CN(C)CC2CC2)[C@@H](C)CN([C@@H](C)CO)C(=O)c2cc(NC(=O)C3CCCCC3)ccc2O1`, the cytotoxicity call in the experiment on HSkMC and with HepG2 was “inactive” in each case. In addition, the growth inhibition call with S. aureus RN4220 was “inactive”.

As to `C[C@@H]1CN([C@@H](C)CO)C(=O)c2cc(NS(C)(=O)=O)ccc2O[C@H]1CN(C)Cc1ccc(C(F)(F)F)cc1`, the cytotoxicity call in the experiment on HSkMC and with HepG2 was “inactive” throughout. Moreover, the growth inhibition call in the experiment with S. aureus RN4220 was “inactive”.

Turning to `COCC(=O)N1C[C@]2(CN(C2)C(=O)CN2CCOCC2)c2c([nH]c3cc(ccc23)OC)[C@H]1CO`, the cytotoxicity call with HSkMC and in the experiment on HepG2 was “inactive” throughout. Also, in the experiment with S. aureus RN4220, the growth inhibition call is “inactive”.

For `C[C@@H]1CN([C@@H](C)CO)C(=O)c2cc(NC(=O)c3ccccc3)ccc2O[C@@H](C)CCCCO[C@@H]1CN(C)C(=O)CCC(F)(F)F`, the cytotoxicity call in the experiment on HSkMC and in the experiment on HepG2 was “inactive” in each case. In addition, the growth inhibition call in the experiment with S. aureus RN4220 was “inactive”.

In the case of `O=C(C[C@@H]1C=C[C@H](NC(=O)CN2CCOCC2)[C@@H](CO)O1)NCCc1ccncc1`, the cytotoxicity call with HSkMC and with HepG2 was “inactive” each time. For the same molecule, the growth inhibition call with S. aureus RN4220 was “inactive”.

As to `C[C@@H]1CCCCO[C@H](CN(C)S(=O)(=O)c2cccs2)[C@@H](C)CN([C@@H](C)CO)C(=O)c2cc(NC(=O)Nc3ccccc3)ccc2O1`, the cytotoxicity call in the experiment on HSkMC and in the experiment with HepG2 was “inactive” each time. Further, in the experiment on S. aureus RN4220, the growth inhibition call is “inactive”.

Take `COc1ccc(NC(=O)Nc2ccc3c(c2)C(=O)N([C@@H](C)CO)C[C@@H](C)[C@@H](CN(C)C(=O)Nc2cccc4ccccc24)O3)cc1`: the cytotoxicity call in the experiment with HSkMC is “active”. Also, the cytotoxicity call with HepG2 was “inactive”. In addition, the growth inhibition call in the experiment on S. aureus RN4220 is “inactive”.

Regarding `CC1OC(OC2C(O)CC(OC3C(O)CC(OC4CCC5(C)C(CCC6C5CC(O)C5(C)C(C7=CC(=O)OC7)CCC65O)C4)OC3C)OC2C)CC(O)C1O` (stereo unspecified), the cytotoxicity call in the experiment on HSkMC and in the experiment on HepG2 was “active” throughout. Also, the growth inhibition call in the experiment with S. aureus RN4220 was “inactive”.

In the case of `CC(=O)N(C)C[C@@H]1Oc2ncc(C#C[C@@H](C)O)cc2C(=O)N([C@@H](C)CO)C[C@@H]1C`, the cytotoxicity call with HSkMC and in the experiment on HepG2 was “inactive” in each case. The growth inhibition call in the experiment with S. aureus RN4220 is “inactive”.

As to `C[C@H](CO)N1C[C@H](C)[C@H](CN(C)Cc2ccc(C(=O)Nc3ccccc3N)cc2)Oc2ccc(NC(=O)C3CCCCC3)cc2C1=O`, the cytotoxicity call in the experiment on HSkMC and in the experiment with HepG2 was “inactive” throughout. Further, the growth inhibition call in the experiment on S. aureus RN4220 was “inactive”.

As for `O=C(C[C@H]1CC[C@@H]2[C@H](COC[C@@H](O)CN2S(=O)(=O)c2ccccc2)O1)NCc1ccc(-c2ccccc2)cc1`, the cytotoxicity call in the experiment on HSkMC and in the experiment with HepG2 was “inactive” in each case. In the experiment on S. aureus RN4220, the growth inhibition call was “inactive”.

For the molecule `C[C@H]1CN([C@@H](C)CO)C(=O)c2cc(-c3cccc(C#N)c3)cnc2O[C@@H]1CN(C)C(=O)C1CCOCC1`, the cytotoxicity call in the experiment on HSkMC and with HepG2 was “inactive” throughout. The growth inhibition call in the experiment with S. aureus RN4220 was “inactive”.

Turning to `C[C@H](CO)N1C[C@H](C)[C@H](CN(C)Cc2ccc3c(c2)OCO3)OCCCC[C@H](C)Oc2ccc(NS(=O)(=O)c3cccs3)cc2C1=O`, the cytotoxicity call with HSkMC and in the experiment on HepG2 was “inactive” each time. Besides, the growth inhibition call in the experiment with S. aureus RN4220 is “inactive”.

With `Cc1noc(C)c1NC(=O)N(C)C[C@H]1Oc2ccc(NC(=O)CCN3CCOCC3)cc2CC(=O)N([C@@H](C)CO)C[C@@H]1C`, the cytotoxicity call in the experiment on HSkMC and with HepG2 was “inactive” in each case. The growth inhibition call with S. aureus RN4220 is “inactive”.

Take `C[C@@H]1CCCCO[C@H](CN(C)C(=O)Nc2ccccc2)[C@H](C)CN([C@H](C)CO)C(=O)c2cc(NC(=O)Nc3ccc(F)cc3)ccc2O1`: the cytotoxicity call with HSkMC and in the experiment with HepG2 was “inactive” throughout. The growth inhibition call in the experiment on S. aureus RN4220 was “inactive”.

For the molecule `NNC(=O)[C@@H](O)c1ccccc1`, the cytotoxicity call in the experiment with HSkMC and in the experiment on HepG2 was “inactive” in each case. The growth inhibition call in the experiment on S. aureus RN4220 is “inactive”.

In the case of `C[C@@H]1CCCCO[C@@H](CN(C)C(=O)Nc2ccc(C(F)(F)F)cc2)[C@@H](C)CN([C@H](C)CO)C(=O)c2cc(NS(=O)(=O)c3ccccc3)ccc2O1`, in the experiment on HSkMC, the cytotoxicity call is “inactive”. The cytotoxicity call with HepG2 was “active”. Further, the growth inhibition call with S. aureus RN4220 was “inactive”.

Turning to `COc1ccc(NC(=O)Nc2cccc3c2O[C@H](CN(C)Cc2ccc(Cl)c(Cl)c2)[C@@H](C)CN([C@H](C)CO)C3=O)cc1`, the cytotoxicity call in the experiment with HSkMC and in the experiment on HepG2 was “inactive” in each case. The growth inhibition call with S. aureus RN4220 is “inactive”.

On to `Cc1noc(C)c1S(=O)(=O)Nc1ccc2c(c1)C(=O)N([C@@H](C)CO)C[C@H](C)[C@H](CN(C)CC1CCCCC1)OCCCC[C@@H](C)O2`, for which the cytotoxicity call with HSkMC and in the experiment on HepG2 was “inactive” in each case. The growth inhibition call with S. aureus RN4220 was “inactive”.

Take `Cc1cc(C(=O)Nc2cccc3c2O[C@H](CN(C)S(=O)(=O)c2ccccc2)[C@H](C)CN([C@H](C)CO)C3=O)n(C)n1`: the cytotoxicity call with HSkMC and in the experiment with HepG2 was “inactive” throughout. In the experiment on S. aureus RN4220, the growth inhibition call was “inactive”.

On to `C[C@H](CO)N1C[C@H](C)[C@@H](CN(C)C(=O)Nc2ccc(C(F)(F)F)cc2)OCCCC[C@H](C)Oc2ccc(NC(=O)CCC(F)(F)F)cc2C1=O`, for which the cytotoxicity call in the experiment with HSkMC is “inactive”. In the experiment on HepG2, the cytotoxicity call is “active”. In addition, the growth inhibition call in the experiment with S. aureus RN4220 was “inactive”.

Consider `Cc1noc(C)c1S(=O)(=O)Nc1ccc2c(c1)C(=O)N([C@H](C)CO)C[C@H](C)[C@H](CN(C)S(=O)(=O)c1cn(C)cn1)O2`, for which the cytotoxicity call in the experiment with HSkMC and in the experiment with HepG2 was “inactive” each time. Moreover, in the experiment on S. aureus RN4220, the growth inhibition call was “inactive”.

For the molecule `Cc1cc(C(=O)Nc2cccc3c2O[C@H](CN(C)Cc2ccc(Oc4ccccc4)cc2)[C@H](C)CN([C@H](C)CO)C3=O)n(C)n1`, the cytotoxicity call in the experiment on HSkMC (human skeletal muscle cells) and in the experiment on HepG2 was “inactive” each time. For the same molecule, in the experiment with S. aureus RN4220, the growth inhibition call was “inactive”.

As for `C[C@H](O)C#Cc1cnc2c(c1)C(=O)N([C@@H](C)CO)C[C@H](C)[C@H](CN(C)C(=O)CN1CCOCC1)O2`, the cytotoxicity call in the experiment with HSkMC and with HepG2 was “inactive” in each case. Besides, the growth inhibition call in the experiment on S. aureus RN4220 is “inactive”.

Turning to `C[C@@H]1CCCCO[C@H](CN(C)Cc2ccncc2)[C@H](C)CN([C@@H](C)CO)C(=O)c2cc(NC(=O)Nc3ccc(F)cc3)ccc2O1`, the cytotoxicity call with HSkMC and in the experiment on HepG2 was “inactive” each time. The growth inhibition call in the experiment on S. aureus RN4220 is “inactive”.

In the case of `CCCc1nc(C(C)(C)O)c(C(=O)O)n1Cc1ccc(-c2ccccc2-c2nn[nH]n2)cc1`, the cytotoxicity call in the experiment with HSkMC and in the experiment on HepG2 was “inactive” throughout. The growth inhibition call in the experiment with S. aureus RN4220 was “inactive”.
